Experimental data: PubChem BioAssay AID1347120 (National Center for Advancing Translational Sciences (NCATS), 2019)
The campaign covered roughly 390,000 compounds. About 930 (0.24%) were called active. The inconclusive results got no clear call from the source; some entries with a clear call stand among them for comparison. Calls follow the shape of the dose curve; as a rule, active = well fitted activation curve with a large enough effect; inconclusive = small, poorly fitted or top-dose-only effect; inactive = no such curve, though single readings can be large or run the other way. Where the call is inconclusive, the potency comes from a doubtful curve fit.

Assay: qHTS for Suppressors of FUS Proteinopathy: Primary screen using FUS-linked yeast assay; also: nearly all actives have a fitted effect of over 55% in size;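 as to growth rescue (activation): plate controls were DMSO vehicle for no effect and reference control for full effect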
Details: S. cerevisiae FUS-expressing, OD600, 24 h; Potency: growth rescue; growth rescue (activation): at 76.6 µM (top of the series)
Summary of the method: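 Galactose (2%) drives FUS expression in yeast precultured in raffinose; seeding density OD 0.005. Test compounds incubated 24hr at 30C and 99% humidity before absorbance at 600 nm was measured.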
Potency is read from the fitted curve at half-maximal effect; tags tell the direction and shape of the fitted curve.

Row | Structure (SMILES) | Potency | growth rescue (activation)
1 | O=P(/C=C1\OCc2ccccc21)(Oc1ccccc1)Oc1ccccc1 | inconclusive: 35.5 µM [activator, partial curve, poor fit] | 
2 | O=C(c1ccc2c(=O)n(Cc3ccc4c(c3)OCO4)c(=S)[nH]c2c1)N1CCC2(CC1)OCCO2 | inconclusive: 20 µM [activator, partial curve, poor fit] | 
3 | CCCCn1nnnc1C(CCc1ccccc1)N1CCC(n2c(=O)[nH]c3ccccc32)CC1 (stereo unspecified) | inconclusive: 22.4 µM [activator, partial curve] | 
4 | COc1cc(/C=C/c2nc3ccccc3c(=O)n2-c2ccc(Br)c(C)c2)ccc1O | inactive | 
5 | Cc1cccc(N2C(=O)/C(=C/c3ccc(CN(CCC#N)S(C)(=O)=O)o3)C(=O)NC2=S)c1 | inactive | 
6 | COC(=O)COc1ccc(/C=C2\C(=O)NC(=S)N(c3ccc(C)cc3)C2=O)cc1OC | inactive | 
7 | NCCc1c[nH]c2ccc(OCc3ccccc3)cc12 | inconclusive: 35.5 µM [activator, single point] | 
8 | CC(C)(O)[C@H]1O[C@H]2CC[C@@]3(C)[C@@](O)(CC[C@H]4Cc5c([nH]c6ccccc56)[C@@]43C)C2=CC1=O | inconclusive: 15.8 µM [activator, single point] | 
9 | COC(=O)C1=C(c2cc3ccccc3s2)C[C@@H]2CC[C@H]1N2C(=O)NCc1ccc(F)cc1 | inconclusive: 31.6 µM [activator, single point] | 
10 | O=C(Nc1ccc2c(c1)OCCO2)c1cccn(Cc2cccc([N+](=O)[O-])c2)c1=O | inactive | 
11 | CCN(CC)C(=O)c1ccc(NC(=O)CSc2nnnn2-c2cc(OC)ccc2OC)cc1 | inconclusive: 0.891 µM [activator, full curve, poor fit] | 
12 | CSc1ccc(C(c2c(O)c3ccccc3oc2=O)c2c(C)n(C)n(-c3ccccc3)c2=O)cc1 (stereo unspecified) | inconclusive: 17.8 µM [activator, partial curve, poor fit] | 
13 | COC(=O)C1=C(c2ccc(OC(F)(F)F)cc2)C[C@@H]2CC[C@H]1N2C(=O)NC1Cc2ccccc2C1 | inconclusive: 31.6 µM [activator, single point] | 
14 | O=c1[nH]c(O)c(/C=C2\C=NN=C2c2ccccc2)c(=O)[nH]1 | inconclusive: 3.16 µM [activator, full curve, poor fit] | 
15 | CCOC(=O)C(O)(c1cn(C)c2ccccc12)C(F)(F)F (stereo unspecified) | inconclusive: 4.47 µM [activator, partial curve, poor fit] | 
16 | CCC(=NCc1ccco1)c1c(O)n(C2CCCCC2)c(=O)[nH]c1=O | inactive | 

Row | Structure (SMILES) | Potency | growth rescue (activation)
17 | CC1=NN(c2ccccc2)C(=O)C1/C=C1\C(=O)NC(=O)N(c2cc(C)cc(C)c2)C1=O (stereo unspecified) | inactive | 
18 | N#CC1c2ccccc2C=CN1C(=O)c1ccc(N(CCCl)CCCl)cc1 (stereo unspecified) | inactive | 
19 | COC(=O)C1=C(c2ccc(-c3ccccc3)c(F)c2)C[C@@H]2CC[C@H]1N2C(=O)NCc1cccc2ccccc12 | inconclusive: 14.1 µM [activator, partial curve] | 
20 | Nc1ccc(Br)cc1C(=O)c1ccccc1 | inactive | 
21 | O=C1NCN(c2ccccc2)C12CCN(C(c1cc3ccccc3o1)c1nnnn1C1CCCCC1)CC2 (stereo unspecified) | active: 11.2 µM | 
22 | S=C(NCCc1ccccc1)N1Cc2cc(N3CCCCC3)ccc2-n2nncc2C1 | inconclusive: 50.1 µM [activator, single point] | 
23 | NN=C1C(Cl)=C(Cl)C(Cl)=C1Cl | inactive | 
24 | Cc1cc(NC(=O)c2cccn(Cc3cccc([N+](=O)[O-])c3)c2=O)no1 | inactive | 
25 | Cc1sc2c(c1C)C(c1ccc(C(C)(C)C)cc1)=NCC(=O)N2CC(=O)Nc1nccs1 | inconclusive: 25.1 µM [activator, single point] | 
26 | Cc1cc(/C=C2/C(=O)NC(=O)N(Cc3ccco3)C2=O)c(C)n1-c1ccccc1O | inconclusive: 50.1 µM [activator, single point] | 
27 | O=C1NC(=O)N(Cc2ccccc2)C(=O)/C1=C/N1CCCc2ccccc21 | inconclusive: 31.6 µM [activator, single point] | 
28 | C=CCC1(CN2CCCCCC2=O)C(=O)NC(=O)NC1=O | inactive | 
29 | CN1C(=O)/C(=C/c2ccc(Cl)s2)C(=O)NC1=S | inactive | 
30 | O=c1[nH]c2ccccc2n1C1CCN(C(CCc2ccccc2)c2nnnn2Cc2ccccc2)CC1 (stereo unspecified) | inconclusive: 17.8 µM [activator, partial curve, poor fit] | 
31 | CCC(=Nc1ccc2c(c1)CCC2)c1c(O)n(C)c(=O)n(C)c1=O |  | inconclusive: 56.5% [activator]
